# According to the supplement of paper PMC10037445:
# Whole data set: some 2,900 compounds, median “NF-kB SEAP reporter activity, fold change vs agonist alone” near 0.99, cut for the highest 2% near 2.6. The list shows a part of the results.
# Columns and labels:
# RAW-Dual [1] = test: NF-kB SEAP reporter activity, fold change vs agonist alone; cytotoxicity flag (confluency mask): not cytotoxic; higher = enhanced NF-kB activity
# Summary of the method: (§1)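 Library stock was pin-tooled at 50 nL into 384-well plates of RAW-Dual macrophages (50,000 cells/well, DMEM), followed 1 h later by a PRR agonist, and the cells were kept at 37 °C, 5% CO2. Supernatant collected after 20 hours was read for IRF by QuantiLuc luminescence and for NF-κB by QuantiBlue absorbance at 620 nm. Reporter activity is fold change over agonist-alone wells, and a well counted as cytotoxic when its IncuCyte confluency was below 70% of agonist controls in both mask sets.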
# RAW-Dual [2] = test: NF-kB SEAP reporter activity, fold change vs agonist alone; higher = enhanced NF-kB activity; details: cytotoxicity flag (confluency mask): not cytotoxic
# Summary of the method: as §1
# [3] = agonist: ODN 1826 (TLR9) 0.5 ug/mL
# [4] = agonist: Pam2CSK4 (TLR2/6) 0.1 ug/mL
# [5] = agonist: Pam3CSK4 (TLR2/1) 0.1 ug/mL
# [6] = library stock concentration (final ~1000-fold dilution): 10 mM, agonist: Imiquimod (TLR7) […]
# [7] = library stock concentration (final ~1000-fold dilution): 10 mM, agonist: MPLA (TLR4) […]
smiles,measurement,setting,value
CC(C)(C)c1cc(NC(=O)Nc2ccc(-c3cn4c(n3)sc3cc(OCCN5CCOCC5)ccc34)cc2)no1 (library stock concentration (final ~1000-fold dilution): 10 mM),NF-kB SEAP reporter activity,RAW-Dual [1]; agonist: LPS (TLR4) 0.1 ug/mL,1.64
same,NF-kB SEAP reporter activity,RAW-Dual [1]; [3],2
same,NF-kB SEAP reporter activity,RAW-Dual [1]; [4],1.32
same,NF-kB SEAP reporter activity,RAW-Dual [1]; [5],1.4
CC(C)(C)c1cc(NC(=O)Nc2ccc(-c3cn4c(n3)sc3cc(OCCN5CCOCC5)ccc34)cc2)no1,NF-kB SEAP reporter activity,RAW-Dual [2]; [6],1.62
same,NF-kB SEAP reporter activity,RAW-Dual [2]; [7],1.76
CN1CCN(c2ccc(-c3cccc(CN4CCOCC4)c3)cc2NC(=O)c2c[nH]c(=O)cc2C(F)(F)F)CC1,NF-kB SEAP reporter activity,RAW-Dual [2]; [6],0.971
same,NF-kB SEAP reporter activity,RAW-Dual [2]; [7],0.997
CN1CCN(c2ccc(-c3cccc(CN4CCOCC4)c3)cc2NC(=O)c2c[nH]c(=O)cc2C(F)(F)F)CC1 (library stock concentration (final ~1000-fold dilution): 10 mM),NF-kB SEAP reporter activity,RAW-Dual [1]; agonist: LPS (TLR4) 0.1 ug/mL,1.11
same,NF-kB SEAP reporter activity,RAW-Dual [1]; [3],0.188
same,NF-kB SEAP reporter activity,RAW-Dual [1]; [4],1.21
same,NF-kB SEAP reporter activity,RAW-Dual [1]; [5],1.24
N#C/C(=C(/N)Sc1ccc(N)cc1)c1ccccc1C(F)(F)F (library stock concentration (final ~1000-fold dilution): 10 mM),NF-kB SEAP reporter activity,RAW-Dual [1]; agonist: LPS (TLR4) 0.1 ug/mL,0.379
same,NF-kB SEAP reporter activity,RAW-Dual [1]; [3],0.387
same,NF-kB SEAP reporter activity,RAW-Dual [1]; [4],0.133
same,NF-kB SEAP reporter activity,RAW-Dual [1]; [5],0.245
N#C/C(=C(/N)Sc1ccc(N)cc1)c1ccccc1C(F)(F)F,NF-kB SEAP reporter activity,RAW-Dual [2]; [6],0.337
same,NF-kB SEAP reporter activity,RAW-Dual [2]; [7],0.401
CN(C)CCCN1c2ccccc2CCc2ccc(Cl)cc21.Cl,NF-kB SEAP reporter activity,RAW-Dual [2]; [6],0.58
same,NF-kB SEAP reporter activity,RAW-Dual [2]; [7],0.661
CN(C)CCCN1c2ccccc2CCc2ccc(Cl)cc21.Cl (library stock concentration (final ~1000-fold dilution): 10 mM),NF-kB SEAP reporter activity,RAW-Dual [1]; agonist: LPS (TLR4) 0.1 ug/mL,1.39
same,NF-kB SEAP reporter activity,RAW-Dual [1]; [3],0.785
same,NF-kB SEAP reporter activity,RAW-Dual [1]; [4],1.07
same,NF-kB SEAP reporter activity,RAW-Dual [1]; [5],0.772
COc1cc2nc(N3CCN(C(=O)C4COc5ccccc5O4)CC3)nc(N)c2cc1OC (configuration not stated),NF-kB SEAP reporter activity,RAW-Dual [2]; [6],1.23
same,NF-kB SEAP reporter activity,RAW-Dual [2]; [7],1.28
COc1cc2nc(N3CCN(C(=O)C4COc5ccccc5O4)CC3)nc(N)c2cc1OC (configuration not stated) (library stock concentration (final ~1000-fold dilution): 10 mM),NF-kB SEAP reporter activity,RAW-Dual [1]; agonist: LPS (TLR4) 0.1 ug/mL,1.07
same,NF-kB SEAP reporter activity,RAW-Dual [1]; [3],0.178
same,NF-kB SEAP reporter activity,RAW-Dual [1]; [4],1.09
same,NF-kB SEAP reporter activity,RAW-Dual [1]; [5],1.32
FC(F)F.N=C(N)NCCCC1NC(=O)C(CCCCN)NC(=O)C(Cc2ccc(O)cc2)NC(=O)C(CC(=O)O)NC(=O)CNC1=O.O=C(O)C(F)(F)F.O=CO (configuration not stated),NF-kB SEAP reporter activity,RAW-Dual [2]; [6],0.972
same,NF-kB SEAP reporter activity,RAW-Dual [2]; [7],1.04
FC(F)F.N=C(N)NCCCC1NC(=O)C(CCCCN)NC(=O)C(Cc2ccc(O)cc2)NC(=O)C(CC(=O)O)NC(=O)CNC1=O.O=C(O)C(F)(F)F.O=CO (configuration not stated) (library stock concentration (final ~1000-fold dilution): 10 mM),NF-kB SEAP reporter activity,RAW-Dual [1]; agonist: LPS (TLR4) 0.1 ug/mL,1.23
same,NF-kB SEAP reporter activity,RAW-Dual [1]; [3],0.997
same,NF-kB SEAP reporter activity,RAW-Dual [1]; [4],1.14
same,NF-kB SEAP reporter activity,RAW-Dual [1]; [5],0.899
N=C(N)NCCCC(N)C(=O)NCC(=O)NC(CC(=O)O)C(=O)O (configuration not stated) (library stock concentration (final ~1000-fold dilution): 10 mM water),NF-kB SEAP reporter activity,RAW-Dual [1]; agonist: LPS (TLR4) 0.1 ug/mL,1.41
same,NF-kB SEAP reporter activity,RAW-Dual [1]; [3],1.14
same,NF-kB SEAP reporter activity,RAW-Dual [1]; [4],1.2
same,NF-kB SEAP reporter activity,RAW-Dual [1]; [5],0.993
N=C(N)NCCCC(N)C(=O)NCC(=O)NC(CC(=O)O)C(=O)O (configuration not stated),NF-kB SEAP reporter activity,"RAW-Dual [2]; library stock concentration (final ~1000-fold dilution): 10 mM water, agonist: Imiquimod (TLR7) […]",0.924
same,NF-kB SEAP reporter activity,"RAW-Dual [2]; library stock concentration (final ~1000-fold dilution): 10 mM water, agonist: MPLA (TLR4) […]",1.06
Cl.Fc1ccc(C2CCNCC2COc2ccc3c(c2)OCO3)cc1 (configuration not stated) (library stock concentration (final ~1000-fold dilution): 10 mM),NF-kB SEAP reporter activity,RAW-Dual [1]; agonist: LPS (TLR4) 0.1 ug/mL,1.43
same,NF-kB SEAP reporter activity,RAW-Dual [1]; [3],0.681
same,NF-kB SEAP reporter activity,RAW-Dual [1]; [4],0.743
same,NF-kB SEAP reporter activity,RAW-Dual [1]; [5],0.829
Cl.Fc1ccc(C2CCNCC2COc2ccc3c(c2)OCO3)cc1 (configuration not stated),NF-kB SEAP reporter activity,RAW-Dual [2]; [6],1.5
same,NF-kB SEAP reporter activity,RAW-Dual [2]; [7],1.07
CNC(=O)c1ccc(N2C(=S)N(c3ccc(C#N)c(C(F)(F)F)c3)C(=O)C2(C)C)cc1F (library stock concentration (final ~1000-fold dilution): 10 mM),NF-kB SEAP reporter activity,RAW-Dual [1]; agonist: LPS (TLR4) 0.1 ug/mL,1.11
same,NF-kB SEAP reporter activity,RAW-Dual [1]; [3],1.02
same,NF-kB SEAP reporter activity,RAW-Dual [1]; [4],0.869
same,NF-kB SEAP reporter activity,RAW-Dual [1]; [5],0.992
